# Among all 230,000 compounds or so, about 3,600 (1.6%) were called active. Inconclusive means that the source gave no clear call. Such entries were picked first, then a sample of the others. Calls come from the whole dose curve; as a rule, active = well fitted inhibition curve with a large enough effect (not every such curve was filed as active); inconclusive = small, poorly fitted or top-dose-only effect, or another doubt; inactive = no such curve, though single readings can be large or run the other way. Potencies beside an inconclusive call are fits to weak or partial responses and may not hold up.
# Biological target: Lysine-specific demethylase 4E (Homo sapiens) (UniProt B2RXH2)
# Assay: qHTS Assay for Inhibitors of Human Jumonji Domain Containing 2E (JMJD2E)
# Conditions: JMJD2E catalytic domain, FDH-coupled NADH fluorescence (FDH is formaldehyde dehydrogenase); series mostly up to 57.1 µM; activity change, negative = inhibition: at the top concentration
# Note: nearly all actives have a fitted effect of over 50% in size.
# Potency is the fitted concentration of half-maximal effect; tags give direction and shape of the fitted curve.
# 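Throughout, for activity change, negative = inhibition: 0% = wells with enzyme and -100% = buffer wells without enzyme.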
# Sequence of UniProt B2RXH2 (B2RXH2 whole entry, looked up, the tested form may be a part): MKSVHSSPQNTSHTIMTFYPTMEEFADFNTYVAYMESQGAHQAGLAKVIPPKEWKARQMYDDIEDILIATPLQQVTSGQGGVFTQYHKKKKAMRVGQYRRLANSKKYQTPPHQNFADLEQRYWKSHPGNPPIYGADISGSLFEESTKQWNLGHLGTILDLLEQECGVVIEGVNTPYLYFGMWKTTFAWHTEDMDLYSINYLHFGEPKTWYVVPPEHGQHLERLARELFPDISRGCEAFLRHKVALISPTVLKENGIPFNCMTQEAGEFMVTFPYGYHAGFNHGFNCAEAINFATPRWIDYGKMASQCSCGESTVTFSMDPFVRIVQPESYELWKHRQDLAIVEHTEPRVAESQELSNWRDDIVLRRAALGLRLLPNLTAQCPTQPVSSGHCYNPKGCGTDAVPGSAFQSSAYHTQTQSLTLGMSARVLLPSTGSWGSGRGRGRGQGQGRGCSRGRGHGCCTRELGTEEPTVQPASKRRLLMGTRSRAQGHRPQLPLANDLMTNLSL
Structure (SMILES),Potency,"activity change, negative = inhibition"
CC(C(=O)NCC1CCCO1)N(C(=O)c1snc(C(N)=O)c1N)c1ccccc1 (centres undefined),"inconclusive: 28.2 µM [inhibitor, partial curve]",–
C=C(C[C@]1(C(=O)OC)CC2(CC=C(C)C)C(=O)C(C(=O)CC(C)C)=C(O)C(CC=C(C)C)(C1)C2=O)C(=O)OC (some centres undefined),–,inactive: -2.06%
CCn1nnc(NC(=O)C(C)Oc2ccc(Cl)cc2Cl)n1 (centres undefined),–,inactive: 1.67%
Cc1ccc(C)c(N(C(=O)c2snc(C(N)=O)c2N)C(C(=O)NCC2CCCO2)c2cccs2)c1 (centres undefined),"inconclusive: 31.6 µM [inhibitor, partial curve]",–
CC(=O)NC(Cc1ccc(F)cc1)C(=O)NC1CCN(c2nnnn2-c2ccccc2)CC1 (centres undefined),–,inactive: 1.07%
CCOC(=O)C(C)/C(C)=N/NC(=O)c1cc2ccccc2cc1O (centres undefined),"inconclusive: 39.8 µM [inhibitor, single point]",–
Oc1ccc(/C=N/NC(=S)N2CCOCC2)cc1,"inconclusive: 31.6 µM [inhibitor, single point]",–
O=C(Cn1cnc2cc([N+](=O)[O-])ccc2c1=O)Nc1cccc(S(=O)(=O)N2CCOCC2)c1,"inconclusive: 35.5 µM [inhibitor, single point]",–
O=c1onc2n1-c1cc(Br)ccc1OC2,–,inactive: 0.0678%
O=C(OC1CCOC1=O)c1cc(-c2ccccc2)nc2ccccc12 (centres undefined),"inconclusive: 28.2 µM [inhibitor, partial curve]",–
CC1=CC2=NC(=O)CC(C)(C(=O)N(CC(=O)NC3CCCC3)c3ccccc3C)N2C=C1 (centres undefined),"inconclusive: 31.6 µM [inhibitor, partial curve]",–
CCN(CC(=O)Nc1ccccc1C(=O)OC)S(=O)(=O)c1ccccc1,"inconclusive: 31.6 µM [inhibitor, partial curve]",–
C=CCN(CC=C)Cc1c(C)[nH]c2ccc(C(=O)OCC)cc2c1=O,"inconclusive: 7.08 µM [inhibitor, full curve]",–
COC(=O)c1ccccc1NC(=S)NC(=O)c1ccc2ccccc2c1,"inconclusive: 35.5 µM [inhibitor, partial curve]",–
CCOC(=O)C(=NCCCN(C)C)NNc1ccc(Br)cc1,"inconclusive: 31.6 µM [inhibitor, single point]",–
Cc1cc(C)nc(SCc2ccc(C(=O)N/N=C/c3cccc(O)c3O)cc2)n1,active: 3.16 µM,–
Nc1nnc(N)c2ccccc12,"inconclusive: 25.1 µM [inhibitor, single point]",–
Cc1cccc(N2CCN(C(=O)C3CCN(S(=O)(=O)N4CCOCC4)CC3)CC2C)c1 (centres undefined),–,inactive: -4.51%
COCc1nnc(NC(=O)c2ccccc2[N+](=O)[O-])s1,"inconclusive: 39.8 µM [inhibitor, single point]",–
COc1ccc(C(=O)NC(=S)NNC(=O)c2ccc(NC(C)=O)cc2)cc1Br,"inconclusive: 39.8 µM [inhibitor, single point]",–
COc1ccc(N2C(=O)CC(NNC(=O)c3cc(C)oc3C)C2=O)cc1 (centres undefined),–,inactive: -4.28%
COc1ccc(CCNC(=O)COC(=O)COc2ccc(Cl)cc2)cc1OC,–,inactive: 9.61%
CCOC(=O)C1=C(C)NC2=C(C(=O)C(C(=O)OCC)C(c3ccccc3OC)C2)C1c1ccccn1 (centres undefined),"inconclusive: 25.1 µM [inhibitor, partial curve]",–

Structure (SMILES),Potency,"activity change, negative = inhibition"
COCCN=C1Sc2nc3ccc(C)cc3cc2CN1Cc1ccco1,"inconclusive: 25.1 µM [inhibitor, partial curve]",–
Cc1onc(NC(=O)CSCC(=O)O)c1Br,"inconclusive: 39.8 µM [inhibitor, single point]",–
CCOC(=O)N1CCN(C(=O)CSc2nnc(-c3cccs3)o2)CC1,"inconclusive: 31.6 µM [inhibitor, single point]",–
Cc1ccccc1OCCC(=O)OCC(=O)Nc1cc(S(=O)(=O)N2CCOCC2)ccc1Cl,–,inactive: -2.46%
CCSc1nnc(-c2sc3nnc(-c4ccccc4)c(-c4ccccc4)c3c2N)o1,–,inactive: 7.67%
CCCCCc1nc(N)c(C#N)c(-c2ccco2)c1CCCC,"inconclusive: 35.5 µM [inhibitor, single point]",–
CCOC(=O)C1CCCCN1Cc1cc(OC)ccc1OC (centres undefined),"inconclusive: 39.8 µM [inhibitor, single point]",–
CCOC(=O)CNC(=O)CSc1nnc(-c2ccc(OC)cc2)n1CC,–,inactive: 5.07%
COc1ccccc1N1CCN(C(=O)/C=C/c2ccc3c(c2)OCO3)CC1,"inconclusive: 39.8 µM [inhibitor, single point]",–
COc1ccc(-c2nn(-c3ccccc3)cc2C2CC(c3cccs3)=NN2C(=O)CCC(=O)O)cc1 (centres undefined),"inconclusive: 28.2 µM [inhibitor, partial curve]",–
Cc1ccc(C(=O)NN2C(=O)/C(=C/c3cn(C)c4ccccc34)SC2=S)cc1,–,inactive: -7.99%
FC(F)(F)c1cc(-c2ccccc2)nc(NC2CCCC2)n1,"inconclusive: 39.8 µM [inhibitor, single point]",–
C/C(=C\C(=S)Nc1ccccc1)Nc1ccccc1,"inconclusive: 39.8 µM [inhibitor, single point]",–
COc1ccc(CC(=O)OCC(=O)N2N=C(c3ccccc3)CC2c2ccc(OC)cc2)cc1 (centres undefined),"inconclusive: 20 µM [inhibitor, partial curve]",–
CCOc1ccc(CCNC(=O)c2oc3c(c2C)-c2[nH]ncc2CC3)cc1OCC,–,inactive: -7.52%
COC(=O)c1nc(-c2ccccc2)oc1N1CCOCC1,"inconclusive: 28.2 µM [inhibitor, partial curve]",–
Cc1ccc(-n2nc3c(c2NC(=O)C(C)(C)C)CSC3)c(C)c1,"inconclusive: 25.1 µM [inhibitor, partial curve]",–
O=C(Nc1ccc2c(c1)nc1n2CCN(C2CCCCC2)C1)c1ccco1,"inconclusive: 20 µM [inhibitor, partial curve]",–
COc1ccc(C2=NCC(CSc3nnnn3C)S2)cc1 (centres undefined),"inconclusive: 35.5 µM [inhibitor, single point]",–
CC(C)OC(=O)/C(=C\c1cccc2ccccc12)NC(=O)c1ccccc1,–,inactive: -6.91%
COc1ccc2[nH]cc(CCNS(=O)(=O)c3ccc(C)cc3)c2c1,–,inactive: 2.75%
COc1ccccc1N1CCN(c2ccc(-c3ccccc3)nn2)CC1,"inconclusive: 25.1 µM [inhibitor, single point]",–
Clc1cccc(OCCn2cncn2)c1Cl,"inconclusive: 39.8 µM [inhibitor, single point]",–

Structure (SMILES),Potency,"activity change, negative = inhibition"
O=C(CN1c2cccc3cccc(c23)S1(=O)=O)NCc1ccc2c(c1)OCO2,"inconclusive: 28.2 µM [inhibitor, single point]",–
COc1ccc(Nc2cc(C)c3ccccc3n2)cc1,"inconclusive: 28.2 µM [inhibitor, single point]",–
Cc1ccc2nc(CSc3nc(C)ccc3C#N)[nH]c2c1,"inconclusive: 7.08 µM [inhibitor, full curve]",–
CCOC(=O)c1ccc(-c2ccc(/C=N/NC(=O)CN(c3ccccc3Cl)S(C)(=O)=O)o2)cc1,"inconclusive: 12.6 µM [inhibitor, partial curve]",–
O=C1c2cccnc2C(Nc2ccccc2)N1Cc1ccco1 (centres undefined),"inconclusive: 28.2 µM [inhibitor, single point]",–
CC(C(=O)O)N1C(=O)C2C3CC(C2C1=O)C1C(c2ccccc2)c2sc(=O)[nH]c2SC31 (centres undefined),–,inactive: 1.59%
O=C(c1cc(-c2ccccc2Cl)on1)N1CCN(C(=O)c2ccco2)CC1,–,inactive: 1.25%
NNC(=O)c1sc(-c2ccccc2)cc1N,"inconclusive: 39.8 µM [inhibitor, single point]",–
CN(C)c1ccc(NC(=O)c2cccc(N3C(=O)CCC3=O)c2)cc1,–,inactive: -29.4%
COC(=O)CNC(=O)/C=C/c1cc(Br)ccc1OC,"inconclusive: 28.2 µM [inhibitor, single point]",–
Clc1ccc(C2=NN=C3COc4ccccc4N3C2)cc1,–,inactive: -2.58%
CCCN1CCN(C(=O)c2cn(CC(C)C)c(=O)c3cc(OC)c(OC)cc23)CC1,"inconclusive: 39.8 µM [inhibitor, single point]",–
Cc1ccc(S(=O)(=O)c2n[nH]n3c2nc(=O)c2ccccc23)cc1,"inconclusive: 28.2 µM [inhibitor, partial curve]",–
COc1cc(/C=N/NC(=O)Cc2ccc(Br)cc2)cc(OC)c1O,"inconclusive: 22.4 µM [inhibitor, partial curve]",–
Cc1nc(N2CCOCC2)c2nc(-c3ccccc3)n(CCCN3CCCCC3C)c2n1 (centres undefined),"inconclusive: 25.1 µM [inhibitor, partial curve]",–
CC(=O)Nc1ccc(C(=O)Nc2nc(-c3ccccn3)cs2)cc1,"inconclusive: 28.2 µM [inhibitor, single point]",–
O=C1N=C(N2CCOCC2)S/C1=C/c1ccc(-c2ccccc2Cl)o1,–,inactive: 1.01%
O=C(NCCO)c1ccc2[nH]c3ccccc3c2c1,"inconclusive: 25.1 µM [inhibitor, partial curve]",–
COc1ccc(-c2nc(CCl)cs2)cc1OC,"inconclusive: 28.2 µM [inhibitor, partial curve]",–
Cn1c2ccccc2c2cc(C(=O)N3CCOCC3)sc21,"inconclusive: 28.2 µM [inhibitor, single point]",–
COC(=O)[C@@H]1C[C@@]2(O)[C@@H](O)[C@@H](O)[C@@H](O)C[C@H]2N1Cc1ccc(N2CCOCC2)cc1,–,inactive: -11.9%
CC1CN(S(=O)(=O)c2ccc(C(=O)Nc3nc(-c4cc5ccccc5o4)cs3)cc2)CC(C)O1 (centres undefined),"inconclusive: 35.5 µM [inhibitor, partial curve]",–
COc1ccc2oc(-c3ccc(O)cc3)cc(=O)c2c1,"inconclusive: 31.6 µM [inhibitor, partial curve]",–
